We go through 26 compounds from the supplement of paper PMC4604168 (melanoma cell lines).

Molecules are shown by their SMILES. Some of the results follow. Many values rest on one well or one pass, so single values are uncertain.

What all share (experiment): cell count relative to DMSO control; melanoma cells; higher = more viable cells
Holding throughout (conditions): library dose: standard library concentration; 72 h

Assay [1] relates to 501Mel.
For assay [2], the system named is A101D.
Assay [3] has as its system A2058.
The test system of assay [4] is A375.
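Also: cells treated in 1,536-well plates, then fixed and DAPI-stained, with nuclei counted from automated high-throughput microscope images.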

With `O=C(/C=C/c1cccnc1)NCCCCC1CCN(C(=O)c2ccccc2)CC1` + Oc1nc(-c2ccc(C(F)(F)F)cc2)nc2c1CSCC2 [XAV939] (first compound 0.05 µM, partner dose 10 µM), the cell count in assay [1] was determined as 103%; in assay [2], 70.7%; in assay [3], 84.5%; in assay [4], 138%.

Regarding `Cc1ccc(Nc2nccc(N(C)c3ccc4c(C)n(C)nc4c3)n2)cc1S(N)(=O)=O` [Pazopanib] + O=C(O)C(=O)Nc1sc2c(c1C(=O)O)CCNC2 [TCS401] (first compound 2 µM, partner dose 8.33333 µM), the cell count came out at 84.6% in assay [1], 70.3% in assay [2], 92.6% in assay [3] and 135% in assay [4].

Regarding `O=C(/C=C/c1cccnc1)NCCCCC1CCN(C(=O)c2ccccc2)CC1` + COc1cc(Nc2ncc(F)c(Nc3ccc4c(n3)NC(=O)C(C)(C)O4)n2)cc(OC)c1OC [Tamatinib] (first compound 0.05 µM, partner dose 2 µM), the cell count in assay [2] stood at 30.5%; in assay [3] it was 99.2%; in assay [4], 122%.

For the compound `CC1(C)CCC(c2ccc(Cl)cc2)=C(CN2CCN(c3ccc(C(=O)NS(=O)(=O)c4ccc(N[C@H](CCN5CCOCC5)CSc5ccccc5)c(S(=O)(=O)C(F)(F)F)c4)cc3)CC2)C1` + CC(=O)O[C@@]12CO[C@@H]1C[C@H](O)[C@@]1(C)C(=O)[C@H](O)C3=C(C)[C@@H](OC(=O)[C@H](O)[C@@H](NC(=O)OC(C)(C)C)c4ccccc4)C[C@@](O)([C@@H](OC(=O)c4ccccc4)[C@H]21)C3(C)C [Docetaxel] (first compound 2 µM, partner dose 0.0005 µM), the values for the cell count in assay [2], in assay [3] and in assay [4] were 17.4%, 6.41% and 53.7%, respectively.

As to `O=C(/C=C/c1cccnc1)NCCCCC1CCN(C(=O)c2ccccc2)CC1` + COc1ccc(-c2ccc3c(N4CCOCC4)nc(N4C[C@@H](C)O[C@@H](C)C4)nc3n2)cc1CO [KU0063794] (first compound 0.05 µM, partner dose 0.1 µM), the cell count in assay [1] was determined as 74.1%; in assay [2] it was 71.9%; in assay [3], 91%; in assay [4], 105%.

On to `CC1(C)CCC(c2ccc(Cl)cc2)=C(CN2CCN(c3ccc(C(=O)NS(=O)(=O)c4ccc(N[C@H](CCN5CCOCC5)CSc5ccccc5)c(S(=O)(=O)C(F)(F)F)c4)cc3)CC2)C1` + Cc1cc([N+](=O)[O-])ccc1NS(=O)(=O)c1cc(Cl)ccc1Cl [FH535] (first compound 2 µM, partner dose 5 µM), for which the cell count amounted to 71.6% in assay [1], 30.5% in assay [2], 80.9% in assay [3] and 46.3% in assay [4].

In the case of `O=C(/C=C/c1cccnc1)NCCCCC1CCN(C(=O)c2ccccc2)CC1` + Oc1cc(-c2nc(-c3ccccc3)[nH]c2-c2ccncc2)ccc1Cl [L779450] (first compound 0.05 µM, partner dose 1 µM), the cell count came to 63.8% in assay [1], 69.6% in assay [2], 119% in assay [3] and 95.5% in assay [4].

With `Cc1ccc(Nc2nccc(N(C)c3ccc4c(C)n(C)nc4c3)n2)cc1S(N)(=O)=O` [Pazopanib] + Oc1cc(-c2nc(-c3ccccc3)[nH]c2-c2ccncc2)ccc1Cl [L779450] (first compound 2 µM, partner dose 1 µM), the cell count in assay [1] was 74.3%; in assay [2], 63.4%; in assay [3] it was 89.8%; in assay [4], 80.4%.

For `Cc1ccc(Nc2nccc(N(C)c3ccc4c(C)n(C)nc4c3)n2)cc1S(N)(=O)=O` [Pazopanib] + CN(c1ncccc1CNc1nc(Nc2ccc3c(c2)CC(=O)N3)ncc1C(F)(F)F)S(C)(=O)=O [PF562271] (first compound 2 µM, partner dose 0.4 µM), the values for the cell count in assay [2], in assay [3] and in assay [4] were 67.1%, 109% and 62.9%, respectively.

With `O=C(/C=C/c1cccnc1)NCCCCC1CCN(C(=O)c2ccccc2)CC1` + CCN(CC)CCCCNc1ncc2cc(-c3cc(OC)cc(OC)c3)c(NC(=O)NC(C)(C)C)nc2n1 [PD173074] (first compound 0.05 µM, partner dose 0.5 µM), the cell count stood at 75.7% in assay [2], 86.8% in assay [3] and 126% in assay [4].

Regarding `O=C(/C=C/c1cccnc1)NCCCCC1CCN(C(=O)c2ccccc2)CC1` + CC1(C)NC(=O)N(c2ccc([N+](=O)[O-])c(C(F)(F)F)c2)C1=O [nilutamide] (first compound 0.05 µM, partner dose 5 µM), the figures for the cell count in assay [2], in assay [3] and in assay [4] were 93.2%, 113% and 112%, respectively.

Turning to `O=C(/C=C/c1cccnc1)NCCCCC1CCN(C(=O)c2ccccc2)CC1` + CCc1ccc(CCOc2ccc(CC3SC(=O)NC3=O)cc2)nc1 [pioglitazone] (first compound 0.05 µM, partner dose 10 µM), the cell count in assay [1] worked out at 67.9%; in assay [2], 98.1%; in assay [3] it was 85.6%; in assay [4], 123%.

Regarding `O=C(/C=C/c1cccnc1)NCCCCC1CCN(C(=O)c2ccccc2)CC1` + O=c1cc(-c2cccc3c2Sc2ccccc2S3)oc(N2CCOCC2)c1 [KU55933] (first compound 0.05 µM, partner dose 5 µM), the cell count in assay [1] amounted to 78.8%; in assay [2], 72.7%; in assay [3], 81.8%; in assay [4] it was 106%.

Regarding `CC1(C)CCC(c2ccc(Cl)cc2)=C(CN2CCN(c3ccc(C(=O)NS(=O)(=O)c4ccc(N[C@H](CCN5CCOCC5)CSc5ccccc5)c(S(=O)(=O)C(F)(F)F)c4)cc3)CC2)C1` + NC(=O)c1ccc(N(C(N)=O)c2c(F)cccc2F)nc1-c1ccc(F)cc1F [VX702] (first compound 2 µM, partner dose 2 µM), the cell count in assay [2] was found to be 47.2%; in assay [3], 110%; in assay [4], 59.8%.

Take `CC1(C)CCC(c2ccc(Cl)cc2)=C(CN2CCN(c3ccc(C(=O)NS(=O)(=O)c4ccc(N[C@H](CCN5CCOCC5)CSc5ccccc5)c(S(=O)(=O)C(F)(F)F)c4)cc3)CC2)C1` + C#Cc1cccc(Nc2ncnc3cc(OCCOC)c(OCCOC)cc23)c1 [erlotinib] (first compound 2 µM, partner dose 4 µM): the cell count in assay [2] was found to be 20.4%; in assay [3], 52.7%; in assay [4], 43.1%.

As for `CC1(C)CCC(c2ccc(Cl)cc2)=C(CN2CCN(c3ccc(C(=O)NS(=O)(=O)c4ccc(N[C@H](CCN5CCOCC5)CSc5ccccc5)c(S(=O)(=O)C(F)(F)F)c4)cc3)CC2)C1` + Nc1ccn([C@@H]2O[C@H](CO)[C@@H](O)C2(F)F)c(=O)n1 [gemcitabine] (first compound 2 µM, partner dose 0.002 µM), the cell count in assay [2] is 26.3%; in assay [3], 39.4%; in assay [4], 42.4%.

On to `O=C(/C=C/c1cccnc1)NCCCCC1CCN(C(=O)c2ccccc2)CC1` + Nc1cccc2c1CN(C1CCC(=O)NC1=O)C2=O [lenalidomide] (first compound 0.05 µM, partner dose 5 µM), for which the values for the cell count in assay [2], in assay [3] and in assay [4] were 96.2%, 93.5% and 130%, respectively.

With `Cc1ccc(Nc2nccc(N(C)c3ccc4c(C)n(C)nc4c3)n2)cc1S(N)(=O)=O` [Pazopanib] + C=CCn1c(=O)c2cnc(Nc3ccc(N4CCN(C)CC4)cc3)nc2n1-c1cccc(C(C)(C)O)n1 [MK1775] (first compound 2 µM, partner dose 0.1 µM), the cell count amounted to 80.3% in assay [2], 107% in assay [3] and 57% in assay [4].

As for `Cc1ccc(Nc2nccc(N(C)c3ccc4c(C)n(C)nc4c3)n2)cc1S(N)(=O)=O` [Pazopanib] + C[C@@H](Oc1cc(-c2cnn(C3CCNCC3)c2)cnc1N)c1c(Cl)ccc(F)c1Cl [Crizotinib] (first compound 2 µM, partner dose 1 µM), the cell count in assay [2] came out at 89.7%; in assay [3], 73.2%; in assay [4], 96.9%.

Take `O=C(/C=C/c1cccnc1)NCCCCC1CCN(C(=O)c2ccccc2)CC1` + C[C@@H](N)c1ccc(C(=O)Nc2ccnc3[nH]ccc23)cc1 [RKI983] (first compound 0.05 µM, partner dose 2 µM): the cell count came to 68.5% in assay [2], 76.3% in assay [3] and 77.2% in assay [4].

Consider `O=C(/C=C/c1cccnc1)NCCCCC1CCN(C(=O)c2ccccc2)CC1` + O=C(O)[C@@H]1[O][Sb](=[O])([O][Sb]2(=[O])[O][C@H]([C@H](O)CO)[C@H](O)[C@H](C(=O)O)[O]2)[O][C@H]([C@H](O)CO)[C@@H]1O [stibogluconate] (first compound 0.05 µM, partner dose 10 µM), for which the cell count in assay [2] was found to be 81.2%; in assay [3], 139%; in assay [4], 131%.

In the case of `Cc1ccc(Nc2nccc(N(C)c3ccc4c(C)n(C)nc4c3)n2)cc1S(N)(=O)=O` [Pazopanib] + O=C(Nc1cccc(Cl)c1)Nc1ncc(CCNc2ncnc3ccsc23)s1 [SNS314] (first compound 2 µM, partner dose 0.004 µM), the cell count in assay [2] stood at 61.8%; in assay [3] it was 82.7%; in assay [4], 90.1%.

For `Cc1ccc(Nc2nccc(N(C)c3ccc4c(C)n(C)nc4c3)n2)cc1S(N)(=O)=O` [Pazopanib] + NC1(c2ccc(-c3nc4ccn5c(=O)[nH]nc5c4cc3-c3ccccc3)cc2)CCC1 [MK2206] (first compound 2 µM, partner dose 2 µM), the cell count in assay [2] turned out to be 90.3%; in assay [3], 94.9%; in assay [4], 102%.

Regarding `O=C(/C=C/c1cccnc1)NCCCCC1CCN(C(=O)c2ccccc2)CC1` + COc1ccc(C2=N[C@@H](c3ccc(Cl)cc3)[C@@H](c3ccc(Cl)cc3)N2C(=O)N2CCNC(=O)C2)c(OC(C)C)c1 [Nutlin-3] (first compound 0.05 µM, partner dose 0.5 µM), the cell count worked out at 78.1% in assay [2], 113% in assay [3] and 113% in assay [4].

Turning to `Cc1ccc(Nc2nccc(N(C)c3ccc4c(C)n(C)nc4c3)n2)cc1S(N)(=O)=O` [Pazopanib] + CC(C)CCN1c2nc(Nc3cc(F)c(O)c(F)c3)ncc2N(C)C(=O)C1C [BID1870] (first compound 2 µM, partner dose 1 µM), the cell count turned out to be 52% in assay [2], 98.8% in assay [3] and 89.5% in assay [4].

As for `CC1(C)CCC(c2ccc(Cl)cc2)=C(CN2CCN(c3ccc(C(=O)NS(=O)(=O)c4ccc(N[C@H](CCN5CCOCC5)CSc5ccccc5)c(S(=O)(=O)C(F)(F)F)c4)cc3)CC2)C1` + Cn1c(Nc2ccc(C(F)(F)F)cc2)nc2cc(Oc3ccnc(-c4ncc(C(F)(F)F)[nH]4)c3)ccc21 [CHIR265] (first compound 2 µM, partner dose 0.4 µM), the values for the cell count in assay [2], in assay [3] and in assay [4] were 12.9%, 29.9% and 41.6%, respectively.
